The other results are listed elsewhere or left out. Binding of human antibodies (heavy:light variable regions, tested as scFv in one mRNA-display pool) to influenza hemagglutinin, with or without the stem antibody CR9114 bound first. Score = (mean enrichment − median) / interquartile range of that screen; higher = more enriched, 0 = typical non-binder. Active = above the paper's cut-off per screen: stems 28; unblocked H1 Solomon Islands 5, H1 Michigan 3, H3 5, H5 19, H7 2.85, both B 5; blocked 9, 7, H5 10, H7 10, B Phuket 10, B Lee 11.5. Scores are scaled within each screen and are no affinities; replicates correlate at about 0.6 to 0.9, and antibodies rare in the pool are noisier.
Experiments:
Assay in all cases: mRNA display binding score; higher = more enriched on the antigen
[1] = molecular target: Influenza A H1N1 A/Michigan/45/2015 hemagglutinin ectodomain
Procedure: (§1)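 A pool of natively paired antibodies, displayed as scFv on mRNA, was selected once on antigen-coated beads and sequenced before and after; two replicates.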

[2] = molecular target: Influenza A H1N1 A/Solomon Islands/3/2006 hemagglutinin ectodomain
Procedure: as §1

[3] = molecular target: Influenza A H3N2 A/Singapore/INFIMH-16-0019/2016 hemagglutinin ectodomain; conditions: antigen blocked with: nothing
Procedure: as §1

[4] = molecular target: Influenza A H5N1 A/Qinghai/1A/2005 hemagglutinin ectodomain
Procedure: as §1

[5] = molecular target: Influenza A H7N9 A/Shanghai/2/2013 hemagglutinin ectodomain
Procedure: as §1

[6] = molecular target: Influenza B/Lee/1940 hemagglutinin ectodomain
Procedure: as §1

[7] = molecular target: Influenza B/Phuket/3073/2013 hemagglutinin ectodomain
Procedure: as §1

[8] = antigen blocked with: 2 µM CR9114 IgG

Binder	mRNA display binding score [1, 8]	mRNA display binding score ([1]; antigen blocked with: nothing)	mRNA display binding score [2, 8]	mRNA display binding score ([2]; antigen blocked with: nothing)	mRNA display binding score [3]	mRNA display binding score [4, 8]	mRNA display binding score ([4]; antigen blocked with: nothing)	mRNA display binding score [5, 8]	mRNA display binding score ([5]; antigen blocked with: nothing)	mRNA display binding score [6, 8]	mRNA display binding score ([6]; antigen blocked with: nothing)	mRNA display binding score [7, 8]	mRNA display binding score ([7]; antigen blocked with: nothing)
FISW-k.01 (protein) chain 1: QVTLRESGPALVKPTQTLTLTCTFSGFSLSTSGMCVSWIRQPPGKALEWLALIDWDDGTFYSTSLKTRLTISKDTSKSQVVLTMTNMGPVDTGTYYCARKLYGDYSDWFDYWGQGILVTVSS chain 2: SYELTQPLSVSVALGQTARITCGGNNIGSKNVHWYQQKPGQAPVLVIYRDSNRPSGIPERFSGSNSGNTATLTVSRAQAGDEADYYCQLSDSSIVVFGGGTKLTVL	active: 10.2	inactive: 0.896	active: 13.8	inactive: 1.71	inactive: 0.242	inactive: 0.294	inactive: 0.873	inactive: 1.18	inactive: 0.307	inactive: 3.53	inactive: 1.75	inactive: 2	inactive: 1.4
AG13-3E05 (protein) chain 1: VQLQESGPGLVSPSETLSLTCTVSADSINSYYWNWIRQPPGKGLEWIGYIHYSGRSIHNPSLNRRVTISMDTSKNQFSLRLTSVTAADTAMYYCASLKKGETSPFDYWGQGTLVTVSS chain 2: DIQMTQSPSTLSASVGDRVSLTCRASQSIGSWLAWYQQKPGKAPKLLIFHASSLESGVPSRFSGSGSGTEFTLTINSLQPDDFATYYCQQYYVYWTFGQGTKVEIK	inactive: 1.17	inactive: 0.45	inactive: 2.86	inactive: 0.279	inactive: -0.241	inactive: 0.961	inactive: -0.214	inactive: -0.188	inactive: 0.0213	inactive: -0.183	inactive: 0.482	inactive: -0.000958	inactive: 0.793
029-09-2A06 (protein) chain 1: EVQLVESGGGLVKPGGSLRLSCSASGFTFSSYTMHWVRQAPGKGLEWLSSISSSSAYIYYADSVKGRFTVSRDNAKKSLYLQMDSLRAEDTAIYFCARDGTSLTVAGPLDYWGQGTLVTVSS chain 2: DIQMTQSPSSLSASVGDRVTITCRASQGIRDDLAWYQQKPGKAPKRLIYAASSLQSAFPARFSGSGSGTEFTLTISGLQPEDFATYYCLQYNSYPRTFGQGTKVEIK	active: 7.61	inactive: -0.00531	inactive: 4.89	inactive: 2.67	inactive: -0.54	inactive: 0.062	inactive: -0.166	inactive: 1.05	inactive: -0.674	inactive: -0.705	inactive: -0.337	inactive: -0.203	inactive: -0.335
045-09-1A01 (protein) chain 1: QVQLQESGPGLVKPSQTLSLTCTVSGGSIRSGIHYWSWIRQFPGKGLEWIGLIHYSENTHHNPSLKSRVAMSVDTSKNQFSLTLSSVTAADTAVYYCARAAKESLCIGGSCDSNYEHYGLDVWGQGTTVTVSS chain 2: DIQMTQSPSSLSASIGDRVTITCRASQSIRNYLNWYQQKPGKAPKLVIYAVSNLQSGVPSRFSGSGSGTDFTLTISSLQPEDLATYYCQQSYSTLPYTFGQGTKVEIK	active: 23.7	inactive: 0.406	inactive: 0.941	inactive: 0.181	inactive: 3.18	inactive: -0.65	inactive: -0.173	inactive: 2.31	inactive: -0.0641	inactive: -0.107	inactive: 0.37	inactive: -0.225	inactive: 0.214
AG11-3C06 (protein) chain 1: VQLVESGGVVVQPGGSLNLSCAASGFTFDDYAMHWVRQGPGKGLEWVSLISWDGGSRYYADSVKGRFTISRDNSKNSLYLEMNSLRTEDTALYYCAKDLGSSWYQLGEKAFDSWGQGTLVTVSS chain 2: IVMTQSPSSLSASVGDRVTITCQASHDISHYLNWYQQKPGRAPKLLIYDASNLATGVPSRFSGSGSGTDFTFTISTLQPEDIATYFCQHYDHLPQITFGPGTKVEIK	inactive: 0.0682	active: 6.63	inactive: -0.413	inactive: 1.71	inactive: 0.242	inactive: -0.825	inactive: 1.3	inactive: -0.856	inactive: 1.67	inactive: -0.0285	inactive: 1.75	inactive: -0.275	inactive: 1.4
01.f.01 (protein) chain 1: EVQLLESGGGVVQPGGSLRLSCGATGFALRDYGIHWVRQAPGQGLEWVAFTRHDGTHKDYIDSVKGRFTISRDNSKNTLYLQMNRLRVEDTAIYYCAKVGYQLLYSGAFHIWGQGTMVSVS chain 2: DIVMTQSPVSLPVTPGEPASISCRSSQSLLHTSEYNYLDWYLQKPGQSPQLLIYLGSHRASGVPDRFSGSGSGTDFTLKISRVEAEDVGVYYCMQALQTPQTFGQGTKLEIK	inactive: -0.362	inactive: 0.109	inactive: 0.393	inactive: -0.214	inactive: 0.665	inactive: 0.1	inactive: -0.223	inactive: 0.294	inactive: 0.229	inactive: 0.0507	inactive: 0.354	inactive: -0.172	inactive: 0.248
S8V1-146-Ig (protein) chain 1: SGAEVKKPGASVKVSCKASGYKFTNYYVHWVRQAPGQGLEWMGIINPREWLGIMNPRAGKTVFAQKFQARVSVTADTSTSTVSMELNSLGYEDTAVYFCARGHDILTDYPHLHWLDSWGQGTLVTVSS chain 2: SITPGESASISCSSAQSLLRRDGYNYLDWYLRKAGQPPQLLIYLGSTRASGVPDRFSGSGSGTNFTLKISRAEAEDVGVYYCMQALQMPLTFGGGTQVEI	inactive: 1.54	inactive: -0.0561	inactive: 0.91	inactive: 3.47	inactive: 0.0465	inactive: 1.37	inactive: 0.19	inactive: 0.523	inactive: 1.42	inactive: -0.198	inactive: 1.24	inactive: 0.912	inactive: 2.24
01.l.01 (protein) chain 1: EVQLVESGGGLVQPGRSLRLSCAASGFTFHDYAMHWVRQVPGKGLEWVSSISWNSYRIGYADSVKGRFTISRDNAKNSLYLQMNSLRAEDTALYYCAKDPQGELIGGRFDPWGQGTLVTVSS chain 2: DIQMTQSPSSLSASVGDRVTITCRASQSITTYLNWYQQKPGKAPKLLIHTASNLQSGVPSRFSGSGSGTDFTLTISSLQPEDFATYYCQQSYSTRFTFGPGTKVDIK	inactive: 0.0532	inactive: -0.53	inactive: -0.397	inactive: 0.644	inactive: -0.114	inactive: 0.452	inactive: -0.0742	inactive: 0.195	inactive: -0.394	inactive: -0.874	inactive: 0.787	inactive: -0.119	inactive: 0.572
C1-3A03 (protein) chain 1: QLQLQESGPGLVKPSETLSLTCTVDGGSISSSSYYWDWIRQPPGKGLEWIGSIYYSGETYHNPSLKTRVTTSVDTSKNQFSLRLSSVTAADTAVYYCARRCGGYQYYYGMDVWGQGTTVTV chain 2: EIVMTQSPATLSVSPGERATLSCRVSQSVIRDLAWYQQKPGQAPRLLIYGASTRATGIPARFSGSGSGTEFTLTISSVHSEDFAVYYCQQYNNWAPITFGQGTRLEIK	inactive: -0.157	inactive: -0.158	inactive: -0.597	inactive: 1.16	inactive: -0.231	inactive: -0.0603	inactive: -0.236	inactive: -0.841	inactive: -0.714	inactive: -0.679	inactive: 0.479	inactive: -0.458	inactive: 0.309
2-12C (protein) chain 1: EVQLVQSGAEVKKPGESLKISCKGSGNGFTTYWIGWVRQVPGKGLEWMGIIYPDDSDTRYSPSFQGQVSISADKSISTAFLQWSSLKASDTAMYFCARLGDVETAMVGQDAFHIWGQGTMVTVSS chain 2: EIVLTQSPGTLSLSPGDRATLSCRASQSVSSSFLAWYQQKPGQAPRLLMYGASRRATGIPDRFSGSGSGTDFTLTISRLEPEDFAVYYCQQYDSSPFTFGGGTKVEIK	active: 80.7	active: 3.93	inactive: -0.267	inactive: -0.279	inactive: -0.499	inactive: 0.301	inactive: 0.0673	inactive: -0.476	inactive: 0.106	inactive: -0.91	inactive: -0.227	inactive: -0.358	inactive: -0.221
039-10-4G01 (protein) chain 1: QVQLVQSGAEVKKPGASVKVSCKASGYTFSTYYIHWVRQAPGQGPEWMGIINPNGGTVAYARKFQGRVTMTRDTSTSTVYMDLRSLSSEDTAVYYCARDGREVPATTRKDYYYYYYMDIWGRGTTVTVSS chain 2: DIVMTQSPDSLAVSLGERATINCKSSQSVFYSSNNKDDLAWYQQKPGQPPKLLIYWASTRGSGVPDRFSGSGSGTDFTLTISSLQAEDVAVYYCQQYYTTPPTFGGGTKVEIK	inactive: 0.0816	inactive: 0.374	inactive: -0.384	inactive: 1.96	inactive: -0.253	inactive: -0.102	inactive: -0.000986	inactive: -0.000668	inactive: 0.641	inactive: -1.12	inactive: 0.417	inactive: -0.266	inactive: 0.391
R95-1D02 (protein) chain 1: QVQLQESGPGLVKPSETLSLTCTVSGDSVSDNFWTWIRQPPGKALEWIGYMYYSGSIKYNPSLKSRVTMSLDTSKNQFSLELTSVTAADTAVYYCARATTWGAPEFDYWGQGTLVTVSS chain 2: DIQMTQSPSSLSASVGDTVTITCRASQSINFYLNWYQQKPGRAPNLLISSASILQSGVPSRFSGSGSGTGFTLTISSLQPEDFATYFCQQSYSSPYTFGQGTKLETK	inactive: 2.32	inactive: 0.884	inactive: 1.52	inactive: 4.75	inactive: 1.23	inactive: 0.215	inactive: 2.17	inactive: 0.105	inactive: 0.842	inactive: 2.39	inactive: 4.64	inactive: 1.55	inactive: 3.92
